{"source": "PubChem BioAssay AID652104", "about": "(National Center for Advancing Translational Sciences (NCATS), 2013)", "note": "In all, about 410,000 compounds went through this assay and about 7,200 (1.8%) were called active. The shares of active, inactive and inconclusive entries below differ from those in the screen. Calls follow the shape of the dose curve; as a rule, active = well fitted activation curve with a large enough effect; inconclusive = small, poorly fitted or top-dose-only effect, or another doubt; inactive = no such curve, though single readings can be large or run the other way. Potencies of inconclusive entries are left out as doubtful fits. Potency is read from the fitted curve at half-maximal effect; tags tell the direction and shape of the fitted curve."}
{"assay": "qHTS of TDP-43 Inhibitors; also: nearly all actives have a fitted effect of over 50% in size; as to growth rescue (activation): % of control where 0% means no effect", "conditions": "TDP-43 expressing yeast growth rescue, BacTiter-Glo, 24 h; growth rescue (activation): at 46.1 µM (top of the series) unless noted", "how_it_was_run": "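Cell-based yeast growth screen: TDP-43 expression induced in galactose, inoculum OD600=0.02 after raffinose pregrowth to mid-log. Read-out BacTiter-Glo luminescence at 24 hr, 30 deg C; inhibition of toxicity seen as signal increase.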"}
{"molecule": "COc1cccc(-c2nc(-c3ccc(-c4ccccc4)nc3OC)no2)c1", "growth rescue (activation)": "inactive: 6.32%"}
{"molecule": "O=C(CSc1nc2c(c(=O)[nH]1)CCC2)Nc1ccccc1F", "growth rescue (activation)": "inactive: 23.7%"}
{"molecule": "O=C(O)c1ccc(CSc2nc3ccccc3o2)cc1", "Potency": "active: 12.6 µM"}
{"molecule": "Nc1c(-c2ccccc2)cnn1-c1ccccc1", "Potency": "inconclusive [activator, partial curve]"}
{"molecule": "COc1ccc(-c2ccc(C(=O)NCC3CCOCC3)c3occc23)c(C)c1", "Potency": "inconclusive [activator, single point]"}
{"molecule": "CCC[C@H]1CC(=O)C=C(c2ccc(OC)cc2)ON1C(=O)OC(C)(C)C", "Potency": "inconclusive [activator, single point]"}
{"molecule": "COc1ccc(Cl)cc1NC(=O)Cn1ccn(Cc2ccc(C)cc2)c(=O)c1=O", "growth rescue (activation)": "inactive: 1.49%"}
{"molecule": "COC(=O)c1ccc(Nc2ncnc3c2nc2n3CCCC2)cc1", "Potency": "inconclusive [activator, single point]"}
{"molecule": "COc1cc(F)ccc1-c1cc(C(=O)NCC2CCCCC2)[nH]n1", "Potency": "active: 25.1 µM"}
{"molecule": "O=C1NC(=O)C2(CCc3ccccc32)N1", "note": "(stereo not given)", "growth rescue (activation)": "inactive: 1.1%"}
{"molecule": "O=C(O)Cc1coc2cc3c(cc12)CCC3", "Potency": "inconclusive [activator, partial curve]"}
{"molecule": "CC(C)c1ccc(Nc2ncc3c(n2)CCN(C(=O)NC2CCCCC2)C3)cc1", "Potency": "inconclusive [activator, partial curve]"}
{"molecule": "Cc1ccc(C2Nc3ccccc3-n3c(-c4ccccc4)c4c(=O)n(C)c(=O)n(C)c4c32)o1", "note": "(stereo not given)", "Potency": "inconclusive [activator, single point]"}
{"molecule": "O=[N+]([O-])c1cccc(C=NN2CCCCCC2)c1", "Potency": "inconclusive [activator, full curve]"}
{"molecule": "COc1ccc(OC(F)(F)F)cc1CC1(C)C(=O)Nc2ccc(S(=O)(=O)NC3CCCCC3)cc21", "note": "(stereo not given)", "growth rescue (activation)": "inactive: 11.7%"}
{"molecule": "Fc1cccc(Cl)c1Cn1nnc2c(NCc3ccccn3)ncnc21", "Potency": "inconclusive [activator, single point]"}
{"molecule": "CC(=O)Nc1ccc(Cl)cc1-c1ccccc1", "Potency": "inconclusive [activator, partial curve]"}
{"molecule": "CCCC[C@@H]1Cc2[nH][nH]c(=O)c2[C@H](c2ccc(C(C)C)cc2)O1", "Potency": "active: 20 µM"}
{"molecule": "c1ccc(-c2nnc(SCc3ccncc3)o2)cc1", "growth rescue (activation)": "inactive: -1.01%"}
{"molecule": "Cc1ccccc1OCC(=O)OCc1cc(=O)n2ccsc2n1", "Potency": "inconclusive [activator, partial curve]"}
{"molecule": "Cc1ccccc1OCC(=O)N/N=C/c1ccco1", "Potency": "inconclusive [activator, partial curve]"}
{"molecule": "CCOC(=O)C1CCN(C(=O)c2cc3c(=O)n4ccccc4nc3s2)CC1", "Potency": "inconclusive [activator, partial curve, poor fit]"}
{"molecule": "Cc1nnc(SCC(=O)Nc2cc(-c3cc(C)c(C)cc3C)nn2-c2ccccc2)s1", "Potency": "inconclusive [activator, partial curve]"}
{"molecule": "CC1C(=O)OC(c2ccc(Cl)cc2)C(C)(C)C1=O", "note": "(stereo not given)", "Potency": "inconclusive [activator, single point]"}
{"molecule": "CCCNC(=O)N1CCN(Cc2ccco2)CC1", "growth rescue (activation)": "inactive: -10.9% [at 0.397 µM]"}
{"molecule": "Cc1ccc(NC(=O)COC(=O)CN2C(=O)C3CCCCC3C2=O)cc1C", "note": "(stereo not given)", "growth rescue (activation)": "inactive: 13.7%"}
{"molecule": "O=C(NNC(=S)NCc1ccco1)C(c1ccccc1)c1ccccc1", "Potency": "inconclusive [activator, full curve]"}
{"molecule": "COc1ccc(-c2nn(C)c3sc(C(=O)Nc4cccc(F)c4)cc23)cc1OC", "Potency": "inconclusive [activator, single point]"}
{"molecule": "Cc1c(Cl)cccc1-n1ncc(C(=O)Nc2ccc3c(c2)OCCO3)c1C1CCN(C(=O)OC(C)(C)C)CC1", "Potency": "inconclusive [activator, single point]"}
{"molecule": "C=CCN1C(=O)N(/C=C/C)c2cccc3cccc1c23", "Potency": "inconclusive [activator, single point]"}
{"molecule": "c1ccc(CSc2nnc(-c3cccs3)o2)cc1", "Potency": "inconclusive [activator, single point]"}
{"molecule": "CCn1c(C(=O)NCc2cccc(Br)c2)cc2oc3ccccc3c21", "growth rescue (activation)": "inactive: -7.12%"}
{"molecule": "O=C(Nc1ccc2nc(-c3ccccn3)[nH]c2c1)C1CCCCC1", "Potency": "inconclusive [activator, full curve, poor fit]"}
{"molecule": "O=C(NCCO)c1ccc2c3n(nc2c1)-c1ccccc1CO3", "growth rescue (activation)": "inactive: 3.89%"}
{"molecule": "COc1cc(/C=C/C(=O)c2ccc(Cl)s2)cc(OC)c1O", "Potency": "inconclusive [activator, single point]"}
{"molecule": "C=CCOc1cccc(C2NC(=O)c3ccccc3O2)c1", "note": "(stereo not given)", "Potency": "inconclusive [activator, single point]"}
{"molecule": "O=C(COC(=O)CSc1ccc2ccccc2c1Br)NC1CC1", "Potency": "inconclusive [activator, single point]"}
{"molecule": "O=C(CSc1nc2ccccc2s1)N1CCCCC1", "Potency": "inconclusive [activator, single point]"}
{"molecule": "COc1ccc(C(=O)/C=C/Nc2c(C)n(C)n(-c3ccccc3)c2=O)c(OC)c1", "Potency": "inconclusive [activator, single point]"}
{"molecule": "O=C(O)C(=O)/C(=C\\c1cccc2ccccc12)c1ccc2ccccc2n1", "Potency": "inconclusive [activator, full curve, poor fit]"}
{"molecule": "Nc1nncn1C(=O)CCCOc1ccc(Cl)cc1Cl", "Potency": "inconclusive [activator, single point]"}
{"molecule": "Cc1cc(C)n(S(=O)(=O)c2cc(Cl)ccc2Cl)n1", "Potency": "inconclusive [activator, single point]"}
{"molecule": "O=C(CNC(=O)c1ccccc1F)NCCc1ccc(Cl)cc1Cl", "Potency": "inconclusive [activator, partial curve]"}
{"molecule": "COc1ccc(/C=C2\\CCc3ccccc3C2=O)cc1Cn1cccn1", "Potency": "inconclusive [activator, single point]"}
{"molecule": "O=C(Nc1nc(-c2ccccc2)c(-c2ccccc2)o1)c1ccc(F)cc1", "Potency": "inconclusive [activator, single point]"}
{"molecule": "CC(=O)c1cccc(NC(=O)C2C3C=CC(C4CC34)C2C(=O)O)c1", "note": "(stereo not given)", "Potency": "active: 22.4 µM"}
{"molecule": "Cc1ccc(S(=O)(=O)Nc2nnc(C(C)(C)C)s2)cc1", "Potency": "inconclusive [activator, single point]"}
{"molecule": "CN(C)/C=C/C(=O)c1ccc(S(=O)(=O)c2ccccc2)cc1", "growth rescue (activation)": "inconclusive: -73.2% [activator]"}
{"molecule": "COc1ccc(N(CC(=O)Nc2cccc(C(F)(F)F)c2)S(C)(=O)=O)cc1", "Potency": "inconclusive [activator, full curve, poor fit]"}
{"molecule": "Cc1cccc(NC(=S)N(CCN2CCOCC2)Cc2cc3cc4c(cc3[nH]c2=O)OCO4)c1", "growth rescue (activation)": "inactive: 17.7%"}
{"molecule": "COc1ccc(S(=O)(=O)Nc2cc3c4c(c2)CCN4C(=O)CC3)cc1OC", "growth rescue (activation)": "inactive: 6.69%"}
{"molecule": "CN(CCC#N)c1ccc(C=C(C#N)c2cccc(C(F)(F)F)c2)cc1", "Potency": "inconclusive [activator, single point]"}
{"molecule": "CC1CCN(S(=O)(=O)c2ccc3c(c2)N(CC(=O)NC(C)C)C(=O)CS3)CC1", "growth rescue (activation)": "inactive: 10.9%"}
{"molecule": "O=C1/C(=C/c2ccccn2)COc2ccccc21", "growth rescue (activation)": "inconclusive: -92.1% [activator]"}
{"molecule": "COc1ccc(N(C)C(=O)c2cc3c(Cl)nc4ccccc4c3s2)cc1", "Potency": "inconclusive [activator, partial curve]"}
{"molecule": "CCOC(=O)C(CC)Sc1nnc2c3cc(C)ccc3n(C)c2n1", "note": "(stereo not given)", "Potency": "inconclusive [activator, single point]"}
{"molecule": "CC1CCCN(S(=O)(=O)c2ccc(Br)s2)C1", "note": "(stereo not given)", "Potency": "inconclusive [activator, partial curve]"}
{"molecule": "CC1(C(=O)Nc2ccc(Cl)c(Cl)c2)CCN1Cc1cc2ccccc2o1", "note": "(stereo not given)", "Potency": "inconclusive [activator, single point]"}
{"molecule": "CC(C)(C)n1[nH]c2c3c(ccc2c1=O)C(=O)c1ccccc1C3=O", "Potency": "inconclusive [activator, full curve]"}
{"molecule": "CCOC(=O)[C@@H]1[C@H]2COc3ccc(Br)cc3[C@H]2N2C(=O)N(c3ccc(C)cc3)C(=O)[C@]12C", "growth rescue (activation)": "inactive: 27.3%"}
{"molecule": "CCc1nnc(NC(=O)c2nn(-c3ccccc3)nc2C)s1", "Potency": "inconclusive [activator, partial curve]"}
{"molecule": "O=C(O)COc1ccccc1-c1nc(-c2ccccc2)c(-c2ccccc2)[nH]1", "Potency": "inconclusive [activator, partial curve]"}
{"molecule": "O=C(NC1CCCCCC1)C1CCN(S(=O)(=O)c2cccc3cccnc23)CC1", "growth rescue (activation)": "inconclusive: 25.9% [activator]"}
{"molecule": "S=C(NCc1ccccn1)NN=Cc1ccccn1", "Potency": "inconclusive [activator, single point]"}
{"molecule": "CSc1ccccc1NC(=O)C1=CC(c2ccc(C)cc2)=NS(=O)(=O)N1C", "Potency": "inconclusive [activator, single point]"}
{"molecule": "CN(C)/C=N/c1ncc(C(=O)c2ccc(-c3ccccc3)cc2)s1", "Potency": "inconclusive [activator, single point]"}
{"molecule": "COc1ccc(C(=O)CSc2nc(SC)ns2)cc1OC", "Potency": "inconclusive [activator, full curve, poor fit]"}
{"molecule": "COc1ccc(C(=O)c2cn(Cc3ccc(F)cc3)c3ccc(C)cc3c2=O)cc1", "Potency": "inconclusive [activator, partial curve]"}
{"molecule": "Cn1cc(C(=O)N/N=C/C(Br)=C\\c2ccccc2)ccc1=O", "growth rescue (activation)": "inactive: 2.27%"}
{"molecule": "COc1cccc(-n2ccnc2SCC(=O)Nc2ccccc2F)c1", "Potency": "inconclusive [activator, single point]"}
